# Laboratory results published in the supplement of paper PMC8728848.
# Some of the results follow.
# Experiments:
# Assay in all cases: glycan array binding signal (z-score within array); higher = stronger binding
# Settings in all cases: glycan notation: IUPAC condensed, linker removed
# [1] = biological target: Neu5Ac(a2-3)Gal(b1-3)[Fuc(a1-4)]GlcNAc(b1-3)Gal(b1-4)[Fuc(a1-3)]GlcNAc
# Method in brief: (§1)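 Columns mapping to the same glycan were averaged after glycan names were converted to IUPAC-condensed notation. The data come from 3228 arrays in the Consortium for Functional Glycomics database, limited to those with an available protein sequence. Binding is reported as a within-array Z-score averaged across arrays of one protein sequence and across linkers.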
# [2] = biological target: Neu5Ac(a2-3)Gal(b1-3)[GlcNAc(b1-6)]GalNAc
# Method in brief: as §1
# [3] = biological target: Neu5Ac(a2-3)Gal(b1-3)[Neu5Ac(a2-3)Gal(b1-4)]GlcNAc
# Method in brief: as §1
# [4] = biological target: Neu5Ac(a2-3)Gal(b1-3)[Neu5Ac(a2-6)]GalNAc
# Method in brief: as §1
# [5] = biological target: Neu5Ac(a2-3)Gal(b1-3)[Neu5Ac(a2-6)]GlcNAc(b1-3)[Fuc(a1-3)[Gal(b1-4)]GlcNAc(b1-6)]Gal(b1-4)Glc
# Method in brief: as §1
# [6] = biological target: Neu5Ac(a2-3)Gal(b1-3)]Neu5Ac(a2-3)Gal(b1-4)]GlcNAc
# Method in brief: as §1
# Neu5Ac(a2-3)Gal(b1-4)Glc = biological target: Neu5Ac(a2-3)Gal(b1-4)Glc
# Method in brief: as §1
# [7] = biological target: Neu5Ac(a2-3)Gal(b1-4)GlcNAc
# Method in brief: as §1
# [8] = biological target: Neu5Ac(a2-3)Gal(b1-4)GlcNAc(b1-2)Man
# Method in brief: as §1
# [9] = biological target: Neu5Ac(a2-3)Gal(b1-4)GlcNAc(b1-2)Man(a1-3)[GlcNAc(b1-2)Man(b1-4)GlcNAc(b1-2)Man(a1-6)]Man(b1-4)GlcNAc(b1-4)GlcNAc
# Method in brief: as §1
# [10] = biological target: Neu5Ac(a2-3)Gal(b1-4)GlcNAc(b1-2)Man(a1-3)[GlcNAc(b1-4)][Neu5Ac(a2-3)Gal(b1-4)GlcNAc(b1-2)Man(a1-6)]Man(b1-4)GlcNAc(b1-4)GlcNAc
# Method in brief: as §1
# [11] = biological target: Neu5Ac(a2-3)Gal(b1-4)GlcNAc(b1-2)Man(a1-3)[Neu5Ac(a2-3)Gal(b1-4)GlcNAc(b1-2)Man(a1-6)]Man(b1-4)GlcNAc(b1-4)GlcNAc
# Method in brief: as §1
# [12] = biological target: Neu5Ac(a2-3)Gal(b1-4)GlcNAc(b1-2)Man(a1-3)[Neu5Ac(a2-3)Gal(b1-4)GlcNAc(b1-2)Man(a1-6)]Man(b1-4)GlcNAc(b1-4)[Fuc(a1-6)]GlcNAc
# Method in brief: as §1
# [13] = biological target: Neu5Ac(a2-3)Gal(b1-4)GlcNAc(b1-2)Man(a1-3)[Neu5Ac(a2-6)Gal(b1-4)GlcNAc(b1-2)Man(a1-6)]Man(b1-4)GlcNAc(b1-4)GlcNAc
# Method in brief: as §1
# [14] = biological target: Neu5Ac(a2-3)Gal(b1-4)GlcNAc(b1-2)[Neu5Ac(a2-3)Gal(b1-4)GlcNAc(b1-4)]Man(a1-3)[GlcNAc(b1-4)][Neu5Ac(a2-3)Gal(b1-4)GlcNAc(b1-2)[Neu5Ac(a2-3)Gal(b1-4)GlcNAc(b1-6)]Man(a1-6)]Man(b1-4)GlcNAc(b1-4)GlcNAc
# Method in brief: as §1
# [15] = biological target: Neu5Ac(a2-3)Gal(b1-4)GlcNAc(b1-2)[Neu5Ac(a2-3)Gal(b1-4)GlcNAc(b1-4)]Man(a1-3)[GlcNAc(b1-4)][Neu5Ac(a2-3)Gal(b1-4)GlcNAc(b1-4)Man(a1-6)]Man(b1-4)GlcNAc(b1-4)GlcNAc
# Method in brief: as §1
# [16] = biological target: Neu5Ac(a2-3)Gal(b1-4)GlcNAc(b1-2)[Neu5Ac(a2-3)Gal(b1-4)GlcNAc(b1-6)]Man(a1-6)[Neu5Ac(a2-3)Gal(b1-4)GlcNAc(b1-2)Man(a1-3)]Man(b1-4)GlcNAc(b1-4)GlcNAc
# Method in brief: as §1
# [17] = biological target: Neu5Ac(a2-3)Gal(b1-4)GlcNAc(b1-2)[Neu5Ac(a2-3)Gal(b1-4)GlcNAc(b1-6)]Man(a1-6)[Neu5Ac(a2-3)Gal(b1-4)GlcNAc(b1-2)Man(a1-3)][GlcNAc(b1-4)]Man(b1-4)GlcNAc(b1-4)GlcNAc
# Method in brief: as §1
# [18] = biological target: Neu5Ac(a2-3)Gal(b1-4)GlcNAc(b1-3)Gal
# Method in brief: as §1
# [19] = biological target: Neu5Ac(a2-3)Gal(b1-4)GlcNAc(b1-3)Gal(b1-3)GlcNAc
# Method in brief: as §1
# [20] = biological target: Neu5Ac(a2-3)Gal(b1-4)GlcNAc(b1-3)Gal(b1-4)GlcNAc
# Method in brief: as §1
# [21] = biological target: Neu5Ac(a2-3)Gal(b1-4)GlcNAc(b1-3)Gal(b1-4)GlcNAc(b1-2)Man(a1-3)[Neu5Ac(a2-3)Gal(b1-4)GlcNAc(b1-3)Gal(b1-4)GlcNAc(b1-2)Man(a1-6)]Man(b1-4)GlcNAc(b1-4)GlcNAc
# Method in brief: as §1
# [22] = biological target: Neu5Ac(a2-3)Gal(b1-4)GlcNAc(b1-3)Gal(b1-4)GlcNAc(b1-3)Gal(b1-4)GlcNAc
# Method in brief: as §1
# [23] = biological target: Neu5Ac(a2-3)Gal(b1-4)GlcNAc(b1-3)Gal(b1-4)GlcNAc(b1-3)Gal(b1-4)GlcNAc(b1-2)Man(a1-3)[Neu5Ac(a2-3)Gal(b1-4)GlcNAc(b1-3)Gal(b1-4)GlcNAc(b1-3)Gal(b1-4)GlcNAc(b1-2)Man(a1-6)]GalNAc
# Method in brief: as §1
# [24] = biological target: Neu5Ac(a2-3)Gal(b1-4)GlcNAc(b1-3)Gal(b1-4)GlcNAc(b1-3)GalNAc
# Method in brief: as §1
# [25] = biological target: Neu5Ac(a2-3)Gal(b1-4)GlcNAc(b1-3)Gal(b1-4)GlcNAc(b1-3)[Neu5Ac(a2-3)Gal(b1-4)GlcNAc(b1-3)Gal(b1-4)GlcNAc(b1-6)]GalNAc
# Method in brief: as §1
# [26] = biological target: Neu5Ac(a2-3)Gal(b1-4)GlcNAc(b1-3)Gal(b1-4)GlcNAc(b1-6)[Gal(b1-3)]GalNAc
# Method in brief: as §1
# [27] = biological target: Neu5Ac(a2-3)Gal(b1-4)GlcNAc(b1-3)Gal(b1-4)[Fuc(a1-3)]GlcNAc
# Method in brief: as §1
# [28] = biological target: Neu5Ac(a2-3)Gal(b1-4)GlcNAc(b1-3)GalNAc
# Method in brief: as §1
# [29] = biological target: Neu5Ac(a2-3)Gal(b1-4)GlcNAc(b1-3)[Neu5Ac(a2-3)Gal(b1-4)GlcNAc(b1-6)]GalNAc
# Method in brief: as §1
# [30] = biological target: Neu5Ac(a2-3)Gal(b1-4)GlcNAc(b1-6)GalNAc
# Method in brief: as §1
# [31] = biological target: Neu5Ac(a2-3)Gal(b1-4)GlcNAc(b1-6)[Gal(b1-3)]GalNAc
# Method in brief: as §1
# [32] = biological target: Neu5Ac(a2-3)Gal(b1-4)GlcNAc(b1-6)[Neu5Ac(a2-3)Gal(b1-3)]GalNAc
# Method in brief: as §1
# [33] = biological target: Neu5Ac(a2-3)Gal(b1-4)GlcNAc6S
# Method in brief: as §1
# [34] = biological target: Neu5Ac(a2-3)Gal(b1-4)[Fuc(a1-3)]GlcNAc
# Method in brief: as §1
# [35] = biological target: Neu5Ac(a2-3)Gal(b1-4)[Fuc(a1-3)]GlcNAc(b1-2)Man
# Method in brief: as §1
# [36] = biological target: Neu5Ac(a2-3)Gal(b1-4)[Fuc(a1-3)]GlcNAc(b1-3)Gal
# Method in brief: as §1
# [37] = biological target: Neu5Ac(a2-3)Gal(b1-4)[Fuc(a1-3)]GlcNAc(b1-3)Gal(b1-4)GlcNAc
# Method in brief: as §1
binder,measurement,setting,value
PpFlo2 (Pichia pastoris) (protein) MGSSHHHHHHSSGLVPRGSHMDDSGNGDNSDTAYGCDITTNAVDGFDATIYQYNANDLRLIRDPTFMSTGYLGRNVLNKISGVTVPGFNIWNPSSRTATVYGVKNVNYYNMVLELKGYFKADVSGDYKLTLSHIDDSSMLFFGKETAFKCCDAGSIPLNEAPTDYSLFTIKPSNQVNSEVISATQYLEAGKYYPVRIVFVNALERARFDFKLTIPSGAVLDDFQNYIYQFGDLDENSCHE,glycan array binding signal (z-score),[1],-0.279
same,glycan array binding signal (z-score),[2],0.351
same,glycan array binding signal (z-score),[3],-0.355
same,glycan array binding signal (z-score),[4],-0.257
same,glycan array binding signal (z-score),[5],-0.265
same,glycan array binding signal (z-score),[6],-0.272
same,glycan array binding signal (z-score),Neu5Ac(a2-3)Gal(b1-4)Glc,-0.294
same,glycan array binding signal (z-score),[7],-0.296
same,glycan array binding signal (z-score),[8],-0.27
same,glycan array binding signal (z-score),[9],-0.337
same,glycan array binding signal (z-score),[10],-0.272
same,glycan array binding signal (z-score),[11],-0.274
same,glycan array binding signal (z-score),[12],-0.271
same,glycan array binding signal (z-score),[13],-0.286
same,glycan array binding signal (z-score),[14],-0.265
same,glycan array binding signal (z-score),[15],-0.271
same,glycan array binding signal (z-score),[16],-0.2
same,glycan array binding signal (z-score),[17],-0.274
same,glycan array binding signal (z-score),[18],-0.289
same,glycan array binding signal (z-score),[19],-0.284
same,glycan array binding signal (z-score),[20],-0.293
same,glycan array binding signal (z-score),[21],-0.239
same,glycan array binding signal (z-score),[22],-0.263
same,glycan array binding signal (z-score),[23],-0.252
same,glycan array binding signal (z-score),[24],0.111
same,glycan array binding signal (z-score),[25],-0.208
same,glycan array binding signal (z-score),[26],-0.259
same,glycan array binding signal (z-score),[27],-0.293
same,glycan array binding signal (z-score),[28],-0.302
same,glycan array binding signal (z-score),[29],0.174
same,glycan array binding signal (z-score),[30],-0.278
same,glycan array binding signal (z-score),[31],-0.301
same,glycan array binding signal (z-score),[32],-0.298
same,glycan array binding signal (z-score),[33],-0.301
same,glycan array binding signal (z-score),[34],-0.293
same,glycan array binding signal (z-score),[35],-0.272
same,glycan array binding signal (z-score),[36],-0.304
same,glycan array binding signal (z-score),[37],-0.275
